# Results published in PubChem BioAssay AID588579 (National Center for Advancing Translational Sciences (NCATS), 2011).
# In all, about 400,000 compounds went through this assay and about 2,200 (0.55%) were called active. The shares of active, inactive and inconclusive entries below differ from those in the screen. Calls follow the shape of the dose curve; as a rule, active = well fitted inhibition curve with a large enough effect; inconclusive = small, poorly fitted or top-dose-only effect, or another doubt; inactive = no such curve, though single readings can be large or run the other way. A potency beside an inconclusive call is a rough fit, not a confirmed value.
# Molecular target: DNA polymerase kappa (Homo sapiens) (UniProt Q9UBT6)
# UniProt Q9UBT6, sequence (Q9UBT6 whole entry, looked up): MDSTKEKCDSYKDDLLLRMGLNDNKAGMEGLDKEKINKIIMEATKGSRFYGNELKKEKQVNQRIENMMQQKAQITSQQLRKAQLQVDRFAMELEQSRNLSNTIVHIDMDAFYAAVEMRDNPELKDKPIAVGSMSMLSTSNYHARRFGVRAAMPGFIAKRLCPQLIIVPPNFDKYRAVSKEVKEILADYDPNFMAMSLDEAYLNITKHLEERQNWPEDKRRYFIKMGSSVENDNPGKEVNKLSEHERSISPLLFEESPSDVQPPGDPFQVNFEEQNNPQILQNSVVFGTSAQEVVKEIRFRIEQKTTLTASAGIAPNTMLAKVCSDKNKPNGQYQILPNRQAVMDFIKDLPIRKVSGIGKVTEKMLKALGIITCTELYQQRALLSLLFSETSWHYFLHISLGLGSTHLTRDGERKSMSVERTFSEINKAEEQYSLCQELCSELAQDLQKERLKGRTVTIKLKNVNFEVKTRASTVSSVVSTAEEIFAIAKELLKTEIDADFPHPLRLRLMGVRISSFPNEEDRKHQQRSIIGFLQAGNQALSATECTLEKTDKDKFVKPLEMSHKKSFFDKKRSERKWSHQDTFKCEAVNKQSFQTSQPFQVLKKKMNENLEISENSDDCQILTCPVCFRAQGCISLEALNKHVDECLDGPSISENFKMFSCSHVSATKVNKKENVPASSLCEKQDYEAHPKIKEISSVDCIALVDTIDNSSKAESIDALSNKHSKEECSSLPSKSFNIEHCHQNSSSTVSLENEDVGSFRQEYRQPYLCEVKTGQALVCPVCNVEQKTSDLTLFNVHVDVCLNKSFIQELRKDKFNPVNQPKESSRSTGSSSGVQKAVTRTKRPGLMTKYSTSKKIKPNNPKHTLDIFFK
# Test: qHTS for Inhibitors of Polymerase Kappa
# Conditions: purified Pol kappa, fluorescent DNA synthesis assay, 10 min; series mostly up to 107 µM; activity, negative = inhibition: at the top concentration
# Procedure, shortened: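 Pol kappa 10 nM + cpd, 15 min RT; start w/ substrate 50 nM final; fluorescence kinetic read, 0 and 10 min. Neg ctrl: buffer, no enzyme.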
# % is scaled to controls: 0 for no effect and ±100 for the full control effect; potency is read from the fitted curve at half-maximal effect; tags tell the direction and shape of the fitted curve.
Structure (SMILES),Potency,"activity, negative = inhibition"
CCOC(=O)CCCc1sc(N)nc1-c1[nH]c(=O)[nH]c1C,"inconclusive: 22.4 µM [inhibitor, full curve, poor fit]",–
CC(=C/c1ccco1)/C=N/NC(=O)Cc1cccn1C,"inconclusive: 89.1 µM [inhibitor, partial curve]",–
CC(=O)/C(N=Nc1ccc(C(=O)O)cc1[N+](=O)[O-])=C(\C)O,"inconclusive: 89.1 µM [inhibitor, single point]",–
Nc1ccn([C@@H]2O[C@H](CO)[C@H](O)C2(F)F)c(=O)n1,–,inactive: -2.47% [at 19.4 µM]
CN(C)c1ccc(C(CNC(=O)c2c(F)cccc2Cl)N2CCOCC2)cc1 (stereo not drawn),–,inactive: -9.35% [at 60.1 µM]
CCOC(=O)C12CC1/C(=N/O)c1ccccc1O2 (stereo not drawn),–,inactive: -10.5% [at 60.1 µM]
COc1ccc(N2CCN(C(=O)CSc3nc4cc(OC)c(OC)cc4cc3C#N)CC2)cc1,"inconclusive: 35.5 µM [inhibitor, partial curve, poor fit]",–
COc1ccc(-n2ccnc(NCc3ccc(C)cc3)c2=O)cc1OC,–,inactive: -2.27%
Cc1cc(C)c(S(=O)(=O)/N=C2\C=CC(=O)C(Cl)=C2)c(C)c1,"inconclusive: 89.1 µM [inhibitor, single point]",–
O=S(=O)(c1ccc(Br)cc1)N1CCCc2ccccc21,–,inactive: -9.9%
COc1cccc(CNC(=O)CCc2c(C)c3cc4c(C)coc4c(C)c3oc2=O)c1,–,inactive: -22.5%
O=C(NC1CC1)C1CCN(S(=O)(=O)c2cc([N+](=O)[O-])ccc2Cl)CC1,active: 50.1 µM,–
Cc1cc(-c2nnc(SCC(=O)Nc3ccc(C)c(C)c3)n2N)n[nH]1,–,inactive: -4.63%
Cc1ccccc1NC(=O)c1cc(-c2ccco2)nc2ccccc12,active: 89.1 µM,–
O=Cc1cn(CCC(=O)O)nc1-c1cc2ccccc2o1,"inconclusive: 89.1 µM [inhibitor, single point]",–
COc1ccc(-n2cccc2/C=C2\C(=N)N3N=C(c4ccco4)SC3=NC2=O)cc1,active: 22.4 µM,–
c1ccc(CN2CCN(CCCNc3ccc4nnc(-c5ccccc5)n4n3)CC2)cc1,"inconclusive: 28.2 µM [inhibitor, single point]",–
COc1ccccc1C1CC(=O)Oc2cc3c(cc21)OCO3 (stereo not drawn),active: 14.1 µM,–
O=C(OC1Cc2c(O)cc(O)cc2OC1c1cc(O)c(O)c(O)c1-c1c(C2Oc3cc(O)cc(O)c3CC2O)cc(O)c(O)c1O)c1cc(O)c(O)c(O)c1 (stereo not drawn),active: 0.794 µM,–
O=C(/C=C/c1cccs1)NC(=S)Nc1ccc(S(=O)(=O)Nc2ccccc2C(F)(F)F)cc1,"inconclusive: 89.1 µM [inhibitor, single point]",–
COc1ccc(/C=C/C(=O)NC(=S)Nc2cc([N+](=O)[O-])ccc2O)cc1OC,"inconclusive: 56.2 µM [inhibitor, partial curve, poor fit]",–
O=C(O)c1cc(NN=C2c3ccccc3-c3ccccc32)ccc1Cl,"inconclusive: 89.1 µM [inhibitor, single point]",–
O=C(O)c1cccc(NC(=O)c2ccc3c(c2)C(=O)N(Cc2ccco2)C3=O)c1,"inconclusive: 79.4 µM [inhibitor, partial curve, poor fit]",–
CCc1nn2c(=O)cc(COC(=O)c3cc(Cl)c(OC)c(OC)c3)nc2s1,"inconclusive: 89.1 µM [inhibitor, single point]",–
O=C(c1cc2cc([N+](=O)[O-])ccc2oc1=O)n1cccn1,active: 79.4 µM,–

Structure (SMILES),Potency,"activity, negative = inhibition"
CC(=O)c1ccc2c3c(cccc13)C(=O)N(CCc1ccccc1)C2=O,"inconclusive: 79.4 µM [inhibitor, partial curve]",–
CCCCCCCCCCCCCCCCCC(=O)OCC(C)O (stereo not drawn),"inconclusive: 31.6 µM [inhibitor, single point]",–
O=C1C2Sc3[nH]c(=O)sc3C(c3cc([N+](=O)[O-])ccc3O)C2C(=O)N1c1ccccc1 (stereo not drawn),"inconclusive: 89.1 µM [inhibitor, partial curve, poor fit]",–
O=C(NNC(=O)C1[C@H]2CCCC[C@@H]12)c1ccc(=O)oc1 (stereo partly drawn),"inconclusive: 89.1 µM [inhibitor, single point]",–
CCc1ccc(NC(=O)NNC(=O)c2cc3ccccc3cc2O)cc1,"inconclusive: 100 µM [inhibitor, single point]",–
COc1ccc2c(c1)c1c(c(=O)n(-c3ccccc3C)c(=O)n1Cc1c(F)cccc1Cl)n2C,–,inactive: 2.96%
Cc1cc(Nc2ccc(F)cc2)nc(-n2nc(C)cc2C)n1,–,inactive: -9.93% [at 60.1 µM]
N=C1S/C(=C\c2ccc(-c3ccccc3C(=O)O)o2)C(=O)N1c1ccc2c(c1)OCO2,active: 79.4 µM,–
Cc1nc2c(c(=O)n1CCC1=CCCCC1)c1nc3ccccc3nc1n2/N=C/c1ccco1,"inconclusive: 15.8 µM [inhibitor, full curve]",–
CCOc1ccc2c(c1)c(=O)c(C(=O)c1ccc(CC)cc1)cn2CC(=O)Nc1ccccc1C,–,inactive: -13.1%
COc1ccc(OCCCON2C(=O)c3ccccc3C2=O)cc1,"inconclusive: 89.1 µM [inhibitor, partial curve, poor fit]",–
Cc1cccn2c(=O)c3cc(S(=O)(=O)c4ccccc4)c(=N)n(Cc4ccco4)c3nc12,–,inactive: -29.5%
O=S1(=O)CCO[C@H]2CCCC[C@@H]2N1Cc1ccccc1F,–,inactive: -5.9%
COC(=O)CCC(=O)OC1(C)C(=O)C2=CN(Cc3ccc(OC)cc3)C(c3ccc(OC)cc3)=CC2=C(Br)C1=O (stereo not drawn),–,inactive: -12.4%
CCOC(=O)CN1C(=O)S/C(=C\c2ccc(-c3ccc(C(=O)O)c(Cl)c3)o2)C1=O,active: 39.8 µM,–
CN(C)c1ccc(N=Nc2ccc(C(=O)O)cc2)cc1,active: 31.6 µM,–
N=C1/C(=C/c2ccc(-c3cccc(C(=O)O)c3)o2)C(=O)N=C2SC=C(c3ccccc3)N12,active: 7.08 µM,–
O=C(CC1Sc2ccccc2NC1=O)Nc1cccc(C(=O)O)c1 (stereo not drawn),active: 35.5 µM,–
OCCNc1c2ccccc2nc2ccccc12,"inconclusive: 89.1 µM [inhibitor, single point]",–
CCc1nn(CC(=O)N2CCN(c3cccc(C(F)(F)F)c3)CC2)c(=O)c2cccn12,"inconclusive: 89.1 µM [inhibitor, single point]",–
CCOc1ccc2nc(SCC(=O)Nc3ccc4[nH]c(=O)[nH]c4c3)[nH]c2c1,"inconclusive: 100 µM [inhibitor, single point]",–
COc1ccc(Oc2nc(-c3ccccn3)ncc2OC)cc1,–,inactive: -13.1%
COc1ccc(C2CC(=O)C(CS(=O)(=O)c3ccccc3)C(=O)C2)cc1 (stereo not drawn),–,inactive: 0.287%
CCOC(=O)c1sc(N2N=C(C)C(N=Nc3cccc(C)c3)C2=O)nc1C (stereo not drawn),active: 89.1 µM,–
COC(=O)/C=C/COc1ccccc1[N+](=O)[O-],–,inactive: 3.51%

Structure (SMILES),Potency,"activity, negative = inhibition"
O=C(O)C1Nc2c(Cl)cc(Cl)c(Cl)c2C2C=CCC12 (stereo not drawn),active: 28.2 µM,–
O=C(Cn1c(SCC(=O)N2CCc3ccccc32)nc2ccccc21)NC1CCCC1,–,inactive: 7.13%
CCc1ccc(-n2cccc2/C=C2/C(=N)N3C(=NC2=O)SN=C3S(C)(=O)=O)cc1,active: 79.4 µM,–
CCN(CC)C(=O)c1cc(-c2ccc(Cl)cc2)on1,–,inactive: -9.72%
Nc1ccc2cc3ccc(N)cc3nc2c1,active: 9.47 µM,–
CC(=O)Nc1sc2c(c1-c1nc3ccccc3s1)CN(C(C)C)CC2,active: 50.1 µM,–
C=CCN(C(=O)c1csnn1)C(C(=O)NC1CCCC1)c1ccc(OC)cc1 (stereo not drawn),"inconclusive: 89.1 µM [inhibitor, single point]",–
CCc1nn(CC(=O)NCc2ccccc2Cl)c(=O)c2cccn12,"inconclusive: 89.1 µM [inhibitor, single point]",–
O=C(COC(=O)c1ccc(S(=O)(=O)NCc2ccco2)cc1)NCc1ccccc1,"inconclusive: 79.4 µM [inhibitor, partial curve, poor fit]",–
CC1Sc2ccc(S(=O)(=O)N3CCC(C(=O)Nc4ccc(Cl)cc4)CC3)cc2NC1=O (stereo not drawn),"inconclusive: 79.4 µM [inhibitor, partial curve, poor fit]",–
CN(CCCC1CCCC1)C(=O)c1cc(COc2c(F)cccc2F)on1,"inconclusive: 79.4 µM [inhibitor, partial curve, poor fit]",–
COc1ccc(C2=Nn3c(nnc3-c3ccccc3F)SC2)cc1OC1CCCC1,active: 50.1 µM,–
CCCCn1c(O)c(/C=C/C=C/C=Nc2ccccc2)sc1=S,"inconclusive: 79.4 µM [inhibitor, partial curve]",–
Cc1ccc(C)c(OCCn2ccnc2)c1,active: 79.4 µM,–
CCC(=O)OC1(C)C(=O)C=C2C=C(C3CC3)OC=C2C1=O (stereo not drawn),"inconclusive: 50.1 µM [inhibitor, partial curve, poor fit]",–
CC(=O)NCc1ccc(C(=O)CSc2nnc(-c3ccncc3)n2Cc2ccccc2)o1,active: 79.4 µM,–
Fc1ccc(-c2noc3ncnc(NCC4CCN(Cc5ccc(Cl)cc5)CC4)c23)cc1,–,inactive: 5.18%
CCC1CN2CCc3cc(OC)c(OC)cc3C2CC1CC1NCCc2cc(OC)c(OC)cc21 (stereo not drawn),–,inactive: -14% [at 60.1 µM]
O=C(COc1ccc(/C=N/NC(=O)c2ccccc2O)cc1)Nc1ccccc1,"inconclusive: 79.4 µM [inhibitor, single point]",–
O=C(O)C1=CCCNC1,"inconclusive: 6.31 µM [inhibitor, single point]",–
O=C(Nc1ccc2nc(SCC(=O)N3CCCc4ccccc43)sc2c1)c1ccccc1,"inconclusive: 89.1 µM [inhibitor, single point]",–
Cc1cc(C)c2c(n1)sc1c(O)cc(=O)[nH]c12,active: 79.4 µM,–
CCOC(=O)c1ccc(NC(=O)Nc2cc3c(cc2N2CCCC2)n(C)c(=O)n3C)cc1,"inconclusive: 89.1 µM [inhibitor, partial curve, poor fit]",–
